# Measurements: article PMC4336329 (PLoS ONE, 2015)
# The campaign covered roughly 310,000 compounds. About 2,200 (0.71%) showed an effect of 50% or more. Effects have a minus sign here. The list shows a part of the results.
# Target: human ether-à-go-go-related gene (hERG) potassium channel (human, UniProt Q12809)
# Test: primary screen, population patch clamp on CHO cells stably expressing hERG
# human ether-à-go-go-related gene (hERG) potassium channel, sequence (Q12809 whole entry, looked up): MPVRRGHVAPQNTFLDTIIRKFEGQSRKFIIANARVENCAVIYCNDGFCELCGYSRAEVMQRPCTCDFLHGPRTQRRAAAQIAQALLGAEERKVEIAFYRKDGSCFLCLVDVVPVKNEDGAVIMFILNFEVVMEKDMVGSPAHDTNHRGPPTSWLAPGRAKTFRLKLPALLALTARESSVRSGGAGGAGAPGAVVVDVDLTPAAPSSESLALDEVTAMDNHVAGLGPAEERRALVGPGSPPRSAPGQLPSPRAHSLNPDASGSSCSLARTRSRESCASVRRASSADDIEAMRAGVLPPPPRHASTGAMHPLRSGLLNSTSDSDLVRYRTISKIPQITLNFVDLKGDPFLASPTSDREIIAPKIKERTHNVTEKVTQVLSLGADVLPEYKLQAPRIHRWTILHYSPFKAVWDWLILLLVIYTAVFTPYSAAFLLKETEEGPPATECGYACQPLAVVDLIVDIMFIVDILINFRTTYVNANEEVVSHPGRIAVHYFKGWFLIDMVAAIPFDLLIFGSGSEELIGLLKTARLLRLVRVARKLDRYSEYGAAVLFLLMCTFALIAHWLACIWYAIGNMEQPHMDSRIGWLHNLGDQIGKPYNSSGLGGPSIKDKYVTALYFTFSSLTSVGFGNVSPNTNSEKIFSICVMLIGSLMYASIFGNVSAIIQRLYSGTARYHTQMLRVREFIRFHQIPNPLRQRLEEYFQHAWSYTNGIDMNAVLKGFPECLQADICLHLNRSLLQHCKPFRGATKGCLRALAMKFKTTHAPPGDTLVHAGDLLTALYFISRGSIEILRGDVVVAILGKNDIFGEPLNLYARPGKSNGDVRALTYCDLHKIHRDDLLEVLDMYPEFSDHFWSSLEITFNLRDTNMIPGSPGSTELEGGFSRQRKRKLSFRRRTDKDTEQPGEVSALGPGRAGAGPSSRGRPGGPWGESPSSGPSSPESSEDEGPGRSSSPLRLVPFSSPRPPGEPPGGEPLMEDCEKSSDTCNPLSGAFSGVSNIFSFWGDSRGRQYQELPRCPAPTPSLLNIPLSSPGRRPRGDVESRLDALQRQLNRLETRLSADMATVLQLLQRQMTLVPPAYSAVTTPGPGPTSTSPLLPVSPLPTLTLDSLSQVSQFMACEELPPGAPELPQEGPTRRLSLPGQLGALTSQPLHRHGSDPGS
row,SMILES,"hERG current change (%, negative = inhibition) at 1uM [%]"
1,COc1ccc(CC2(CO)CCN(S(=O)(=O)c3c(C)nn(C)c3Cl)CC2)cc1,7.19
2,Cc1c(/C=N/NC(=O)C2(O)c3ccccc3-c3ccccc32)cnn1C,14.8
3,Cc1ccc(-n2nnnc2SCC(=O)N2CCc3ccccc3C2)c(C)c1,-7.25
4,Cc1ccc(N(C(=O)CS(=O)CC(=O)Nc2ccc(F)cc2)C(C)C(=O)NC(C)(C)C)cc1 (centres unmarked),13.9
5,Cc1ccc(C2CC(=O)c3cnn(-c4nc(C)cc(C)n4)c3C2)cc1 (centres unmarked),0.815
6,O=C(CSc1ccc2nnc(-c3ccncc3)n2n1)NCc1ccco1,-7.28
7,CCCc1nc(SCC(=O)Nc2ccc(N3CCOCC3)cc2)c2ccccc2n1,-7.38
8,Cc1cc(CCC(=O)O)c(C)cc1CCC(=O)O,3.69
9,CCC(CO)n1c(SCc2cc(=O)oc3cc(C)ccc23)nc2ccccc2c1=O (centres unmarked),14.1
10,O=c1[nH]c2ccsc2c(=O)n1CCO,11.1
11,Cc1nnc(SCc2nnc(-c3cccs3)o2)n1C,15
12,CC1CCCCN1Cc1cccnc1.O=C(O)C(=O)O (centres unmarked),13.8
13,COc1ccc(Cl)cc1NC(=O)NCc1ccco1,1.04
14,CN(C(=O)c1ccc(N2CCOCC2)c([N+](=O)[O-])c1)C1CCCCC1,7.37
15,COc1ccc(/C=N/NC(=O)Cc2csc(Nc3cccc(C(F)(F)F)c3)n2)c(OC)c1,8.25
16,COc1ccc(C(=O)Nc2ccc(C(F)(F)F)n(C)c2=O)cc1,2.71
17,C#CCCCCCCC#CCN(C)C.CC(=O)O,16.3
18,Cc1c(-c2ccncc2)oc2ccc(Br)cc2c1=O,8.33
19,Cc1noc(C)c1COC(=O)Cc1ccc(Cl)cc1,4.37
20,Cc1cccc(NC(=O)CN2CCN(C(=O)C(C)Oc3ccc(C#N)cc3)CC2)c1C (centres unmarked),-54.7

row,SMILES,"hERG current change (%, negative = inhibition) at 1uM [%]"
1,CC(=O)Nc1nc(-c2ccc3c(c2)CCN3S(C)(=O)=O)cs1,9.83
2,Cn1cnnc1SCC(=O)Nc1nc(-c2ccccc2)cs1,2.11
3,CC(C)(C)C(=O)N1CCC[C@@]1(CO)C(=O)O,11.3
4,O=C(CSc1nnc(-c2cc(-c3cccs3)nc3ccccc23)o1)NC1CCCCC1,10.3
5,Cc1cc(C(=O)OCC(=O)NCc2ccco2)c(C)o1,7.79
6,CC(=O)N1CC(=O)N(OCc2ccccc2)C1c1ccc(Cl)cc1Cl (centres unmarked),10.8
7,COc1cccc(/C=C/C(=O)OCC(=O)N2CCN(S(=O)(=O)c3ccc(Cl)cc3)CC2)c1,13.7
8,CCOc1ccc(-c2c(C(=O)N/N=C/c3cccs3)nnn2-c2nonc2N)cc1,8.15
9,CC(C)CNC(=O)c1ccc2c(c1)C(=O)N(C1CCCCC1)C2=O,8.43
10,O=C(CSc1ccccn1)N1CCc2ccccc21,6.34
11,COc1ccc(NC(=S)N2CCN(c3ccccc3)CC2)c(OC)c1,16.5
12,CC(=O)c1cn(Cc2ccc(F)cc2)c2ccccc12,-2.75
13,COc1ccccc1Nc1ncnc2nc[nH]c12,11.2
14,CC(C)NC(=O)c1onc(CSc2ccc(F)c(F)c2)c1C(=O)NC(C)C,-1.15
15,Cc1nnc2sc(SCC(=O)N3CCCCC3)nn2c1=O,11.4
16,CCN(CC)CCCNC(=O)C1c2ccccc2Oc2ccccc21,9.17
17,CSCCNCc1c(C(=O)N2CCOCC2)nc2c(C)cccn12,13.7
18,CC1(C)CC(=O)/C(=N/Nc2ccc(Cl)cc2)CO1,8.09
19,CC12CN3CC(C)(CN(C1)C3c1ccc(Br)cc1O)C2 (centres unmarked),1.02
20,CN(CC(=O)Nc1ccccc1Cl)C(=O)C1CCN(C(=O)c2ccc(Cl)cc2)CC1,-3.89

row,SMILES,"hERG current change (%, negative = inhibition) at 1uM [%]"
1,COc1ccc(S(=O)(=O)N2c3cc(C)ccc3OCC2C(C)(C)C)cc1 (centres unmarked),6.16
2,Cc1cccc(NC(=O)C2CCCN(C(=O)NCc3ccccc3)C2)c1C (centres unmarked),12.3
3,Cc1ccsc1/C=N/NC(=O)c1ccccn1,5.01
4,COc1ccccc1C(c1nnnn1C(C)C)N1CCN(C(=O)c2ccco2)CC1 (centres unmarked),11.8
5,O=C(CSC(=S)N1CCN(c2ccccc2)CC1)Nc1nc(-c2ccccc2)c(-c2ccccc2)o1,1.95
6,Cc1nc2cc(NC(=O)c3ccc([N+](=O)[O-])s3)ccc2s1,-2.3
7,O=S(=O)(c1cnccc1N1CCN(/N=C/c2ccc(Br)cc2)CC1)N1CCCCC1,13.1
8,O=C(CN1CCOCC1)Nc1nc(-c2ccccc2Cl)cs1,-7.94
9,O=C(NCCCN1CCCC1=O)c1cn(-c2ccccc2)nc1-c1ccccc1,1.26
10,CCN(CC)Cc1c(O)ccc2c(=O)c(-c3ccc(Cl)cc3)coc12,-10.4
11,CC(C)CN(CC(C)C)S(=O)(=O)N1CCC(C(=O)NCc2cccs2)CC1,1.45
12,Cc1ccc(C2CC(=O)Nc3sc(C(N)=O)c(N)c32)cc1 (centres unmarked),2.74
13,CSc1cccc(NC(=O)N2CCN(C)CC2)c1,-0.755
14,O=C(NCc1ccco1)c1ccc(Cl)c(S(=O)(=O)N2CCOCC2)c1,9.1
15,Cc1cccc(C)c1NC(=S)N1CCC(c2ccccc2)C1 (centres unmarked),3.18
16,CC(=O)NCC(=O)NC1(C(=O)NC2CCCC2)CCCCC1,10.7
17,COc1cccc(C(=O)COc2ccc(NC(=O)c3cccs3)cc2)c1,13.4
18,COc1cc2cc(CCCOC(=O)c3ccco3)oc(=O)c2cc1OC,-2.15
19,Cc1occc1C(=O)NCc1cccc(CNC(=O)c2ccoc2C)c1,5.08
